Some of the results follow.
What follows are sequences tested against T1, OsWOX13 (Oryza sativa, UniProt Q5QMM3 1-267) (assay: protein-binding microarray (RPBM); PBS, 2% BSA, 51.3 ng/ul salmon testes DNA, 50 uM zinc acetate, 200 nM TF, 25 C, 1 h; high values mean tight binding). Settings: protein: recombinant; tags: N-terminal polyhistidine and DsRed monomer fusion (pET32a); label: CyDye5-dUTP incorporated in the synthesized complementary strand; 3' TTTTT single-stranded linker to array surface; dsDNA, one strand shown.
T1 sequence: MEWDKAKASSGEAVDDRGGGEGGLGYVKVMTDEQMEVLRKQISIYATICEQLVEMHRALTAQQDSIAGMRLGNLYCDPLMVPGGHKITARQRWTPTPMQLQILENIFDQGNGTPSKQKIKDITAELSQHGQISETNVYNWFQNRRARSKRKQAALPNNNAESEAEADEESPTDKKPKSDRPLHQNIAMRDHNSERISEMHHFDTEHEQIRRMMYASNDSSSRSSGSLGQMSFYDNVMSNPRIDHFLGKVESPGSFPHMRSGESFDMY
In short: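 The binding signal is fluorescence intensity per array feature (arbitrary units). Readings came from an Axon 4000B scanner after a washed, 2% BSA-blocked, double-stranded custom Agilent array had been incubated for 1 h at 25 °C with 200 nM protein and 50 µM zinc acetate. The protein was a Ni–NTA-purified transcription factor fused N-terminally to polyhistidine and DsRed, expressed in E. coli BL21-CodonPlus.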
For “CAAGATTTACTCAATTTTCTATATATACAAAAGTTTTGTTCGGAGTCACCTAGTGCAG”, the binding signal was 9970 fluorescence intensity (a.u.). For “GTAGGATTGATCTCGTTTGATTCGATCTTGGAATAGTCGGCGGAGTCACCTAGTGCAG”, the binding signal was 14400 fluorescence intensity (a.u.). “CACAAATTACTTTTCGTTTACCAATATACCGAGCGAAACGCGGAGTCACCTAGTGCAG” was tested, and the binding signal was 18200 fluorescence intensity (a.u.). For “ACAAATTATTCCCATATATATATACCAAAAGGATATGCACCGGAGTCACCTAGTGCAG”, the binding signal was 6070 fluorescence intensity (a.u.). With “AGAGGCAGTAATTAACTATAAAGTCCTGCATATCCATATCCGGAGTCACCTAGTGCAG” the binding signal was 3820 fluorescence intensity (a.u.). For “TATCTATAGTTAACTAGCTAATTACCATTAACACCTCACCCGGAGTCACCTAGTGCAG”, the binding signal was 11700 fluorescence intensity (a.u.). With “TTGTAATTAGTAGGGTGATTACTATTTGGTAATCATAAGTCGGAGTCACCTAGTGCAG” the binding signal was 33000 fluorescence intensity (a.u.). In the case of “CATAATTATGTGTGTGGTCATCATTGAGAAATGGCTTGTCCGGAGTCACCTAGTGCAG”, the binding signal is reported as 38000 fluorescence intensity (a.u.). With “CATTGTATTTATATCCAATTAGGAACTCTCATCCGTACGCCGGAGTCACCTAGTGCAG” the binding signal was 3760 fluorescence intensity (a.u.). For “CTAATTAATCCGTTATTAGCACATATGTGTTACTGTAGCACGGAGTCACCTAGTGCAG”, the binding signal was 12200 fluorescence intensity (a.u.). For “CATAATTAGAGAATGTTTACTGTAGCATCACATAAGCTAACGGAGTCACCTAGTGCAG”, the binding signal was 10700 fluorescence intensity (a.u.). In the case of “TCCCTATTTACCGCAATTGACTTTGAACACAAAAGTTTAACGGAGTCACCTAGTGCAG”, the binding signal is reported as 3400 fluorescence intensity (a.u.). With “ACAGTCAAATTCAACTAAAATTTATTGAATTTACCGAGGACGGAGTCACCTAGTGCAG” the binding signal was 5140 fluorescence intensity (a.u.). With “AGGCATAATTATATATGCAACTTTGAATCCAACCGACGCTCGGAGTCACCTAGTGCAG” the binding signal was 3180 fluorescence intensity (a.u.). For “TATTTAATTAATCAATGATGTGTTAATCCGCAACTTCATTCGGAGTCACCTAGTGCAG”, the binding signal was 22700 fluorescence intensity (a.u.). For “CACAAATTGTAAACATACTACCACCTCAGCTTGCTAGGCGCGGAGTCACCTAGTGCAG”, the binding signal was 15600 fluorescence intensity (a.u.). For “AATTAAATTTGCCATGGCCTTTTCTGCCTATTTATATCAGCGGAGTCACCTAGTGCAG”, the binding signal was 7000 fluorescence intensity (a.u.). In the case of “CCGTTAAATTAAATGATAAGCCATACTTTGATTTCATTTTCGGAGTCACCTAGTGCAG”, the binding signal is reported as 23000 fluorescence intensity (a.u.). With “ATAAATTGGGTCAATTCTCTTCTTCTAAATATAAAAGTGGCGGAGTCACCTAGTGCAG” the binding signal was 24800 fluorescence intensity (a.u.). For “CTTGAATAGACTATTATATATGCATATAATACTACGAGTCCGGAGTCACCTAGTGCAG”, the binding signal was 3690 fluorescence intensity (a.u.). In the case of “TTGATCAATTTTATACTCCCTCCGTTTCGTATTGTAAAACCGGAGTCACCTAGTGCAG”, the binding signal is reported as 3620 fluorescence intensity (a.u.). For “GAACTAATTAGGCTTAAAAGATTCGTCTCGCGATTTCCTCCGGAGTCACCTAGTGCAG”, the binding signal was 25700 fluorescence intensity (a.u.). With “CTCTCTCATTGATTGAGTGGATATTATATTTTAATGCGTTCGGAGTCACCTAGTGCAG” the binding signal was 48500 fluorescence intensity (a.u.). “GGGTCAGGGTGGGCGTGGATTGATATTTTAATACGAATAACGGAGTCACCTAGTGCAG” was tested, and the binding signal was 10800 fluorescence intensity (a.u.). For “GATAGCTCAATTATGTGCTATTAATATACAGAAGGCATGGCGGAGTCACCTAGTGCAG”, the binding signal was 4900 fluorescence intensity (a.u.). “CATAAATTATTCCTGTCTTGTAGTACATCCATCCATCCATCGGAGTCACCTAGTGCAG” was tested, and the binding signal was 26300 fluorescence intensity (a.u.). With “TGTAGCAATTACGTTTCCCTTTCCTCCCCTGTCTCTTCCACGGAGTCACCTAGTGCAG” the binding signal was 3380 fluorescence intensity (a.u.). With “GTGACTGACTGATGATAAATTTGATAATACGCGTCGTTAGCGGAGTCACCTAGTGCAG” the binding signal was 63100 fluorescence intensity (a.u.). In the case of “CCTATACTATAATTGCCAGTTCTCGCTTGCGGGACGAGAGCGGAGTCACCTAGTGCAG”, the binding signal is reported as 8590 fluorescence intensity (a.u.). “TCTTGTTAACCTCATTATTAATTTTCTCTTCTAAACTCCTCGGAGTCACCTAGTGCAG” was tested, and the binding signal was 5290 fluorescence intensity (a.u.). With “TACACTAATTTAAATAGTTGGAGGTAAAGACATCTAGTATCGGAGTCACCTAGTGCAG” the binding signal was 13500 fluorescence intensity (a.u.). “ATAAATGATTGGAGGATTTGTTGTGACTTTTCCACAATGTCGGAGTCACCTAGTGCAG” was tested, and the binding signal was 58200 fluorescence intensity (a.u.). With “AGCCTAATTAATCCGTCATTAGCAAACGTTTACTATAGCACGGAGTCACCTAGTGCAG” the binding signal was 37100 fluorescence intensity (a.u.). In the case of “TATTATGTCGTCTTAATTAATTATTAGGTAGCCGGCCTACCGGAGTCACCTAGTGCAG”, the binding signal is reported as 10200 fluorescence intensity (a.u.). For “AATTAATAATGTCAGTCACGGCCACGAATAATCCAGCACGCGGAGTCACCTAGTGCAG”, the binding signal was 3900 fluorescence intensity (a.u.). “ACCAAATTTAACTTACATGCATGATATCTTTATTTATTATCGGAGTCACCTAGTGCAG” was tested, and the binding signal was 6380 fluorescence intensity (a.u.). “CACAGATAGATTTGCAGGTGTTCAGTCTACTACACCTGAACGGAGTCACCTAGTGCAG” was tested, and the binding signal was 27700 fluorescence intensity (a.u.). For “TCAATTTGACGTTAACAGTGCCACGAGTACAGCCAAACCGCGGAGTCACCTAGTGCAG”, the binding signal was 3410 fluorescence intensity (a.u.). “CTTAATGAACGGTTTGATGAGGTAAACACAGATTTGCTCCCGGAGTCACCTAGTGCAG” was tested, and the binding signal was 19200 fluorescence intensity (a.u.). In the case of “AAACAAATTATCCATGTTCTGTTGGGTTGAGAATTTTGATCGGAGTCACCTAGTGCAG”, the binding signal is reported as 7520 fluorescence intensity (a.u.). With “TAAATTGTACATGATATATGTCAAGTGTCAACGTCTGATTCGGAGTCACCTAGTGCAG” the binding signal was 5030 fluorescence intensity (a.u.). In the case of “GATAACGTGGCCAAATTATATCAGACGTTCATGTTTAGATCGGAGTCACCTAGTGCAG”, the binding signal is reported as 5800 fluorescence intensity (a.u.).

— publication PMC7819943, “Rice protein-binding microarrays: a tool to detect cis-acting elements near promoter regions in rice”
